ChEMBL document CHEMBL4888484, “Replenishing the malaria drug discovery pipeline: Screening and hit evaluation of the MMV Hit Generation Library 1 (HGL1) against asexual blood stage Plasmodium falciparum ,using a nano luciferase reporter read-out” (2022)
Screen size: about 150,000 compounds; about 540 (0.36%) showed an effect of 50% or more. This is one part of the list.

System: Plasmodium falciparum
Assay: Primary screen in NF54 nanoGlo assay, in single point, at 2uM, 72h; a lower Z score goes with more inhibition
Type: functional, Erythrocyte
Conditions: timepoint 72 hour

Compound	% Inhibition [%]	Z score
C[C@H]1OCC[C@H]1NS(=O)(=O)c1cccc(Br)c1	-1	0.1
Cc1nc(C)c(CN2CCC[C@H](n3ccc(C(F)(F)F)n3)C2)s1	-14	1.61
c1cc([C@@H]2CCCCN2c2nc(C3CC3)ns2)n[nH]1	29	-4.24
COC[C@@H]1CCCN1C(=O)NCc1nc2c(C)cccc2o1	-3	0.46
Cc1ccc2nc(NCCN3CCOCC3)sc2c1	-15	1.74
O[C@H]1COC[C@@H]1Nc1ncc(Cl)cc1F	-4	0.4
CC(C)c1nnc(Cn2ncc3c2C[C@@H](O)CC3)s1	4	-0.6
Cc1nn(C)c2nc(N[C@H](c3nccn3C)C(C)C)sc12	-6	1.06
Cc1csc([C@@H](C)C(=O)N2CCN(c3cnccc3C)CC2)n1	2	-0.46
Cc1cc(CN(C)C(=O)c2c(C)n[nH]c2C2CC2)no1	-7	0.89
O=C1CCCC[C@@](Cc2ccccc2)(C(=O)NCCCN2CCOCC2)N1	6	-0.69
CCCc1cc(C(=O)N2C[C@H](CCC)[C@@H](N)C2)no1	-14	1.31
COc1ccccc1-c1nc2ccc(C)cn2c1NS(=O)(=O)c1ccccc1	-12	1.19
CCn1cnnc1NCc1csc(C)n1	5	-0.65
Clc1ccc(-n2nnnc2C2(N3CCOCC3)CCCC2)cc1	-7	1.29
Cn1c(CCNc2ccc3nnnn3n2)nc2ccc(F)cc21	-26	4.89
O=C(Nc1cc(-c2ccc(OC(F)F)cc2)no1)c1nccn2ccnc12	-19	3
CC(C)(C)NC(=O)CNc1nnc(Cc2ccc(F)cc2)s1	-1	0.16
CC(C)CCNC(=O)c1[nH]cnc1C(=O)N1CCN(Cc2ccccc2)CC1	32	-3.75
CCOC(=O)C1CCN(c2ncnc3c2c(C)c(C)n3-c2cc(Cl)ccc2C)CC1	13	-2.04
COc1ccc(-c2nccn2[C@H](c2ncnn2C)C(C)C)c(F)c1	-5	0.96
CCO[C@@H](C)CN(C)Cc1nc(C(=O)NC)no1	-11	2.02
CC(C)N1C[C@@H](NC(=O)N(C)Cc2noc(C3CCC3)n2)CC1=O	1	-0.22
CCc1ccc(NC(=O)c2nn3c(C)cc(C)nc3c2-c2ccc(OC)c(S(=O)(=O)N(CC)CC)c2)cc1	-8	0.79
O=C(CC1CCCCC1)N1CCC2(CC1)C[C@@H](Cc1nc(-c3cccnc3)no1)CCO2	-20	2.74
Cc1cc(C)n(Cc2nnc(N3CCN(Cc4ccccc4)CC3)n2Cc2ccccc2C)n1	-4	0.53
COCCn1cnnc1CNc1cc(-c2ccncc2)nc2ccnn12	-1	0.18
COc1ncccc1CNC(=O)CN1CCN(Cc2ccccc2)CC1	-11	1.57

Compound	% Inhibition [%]	Z score
CC1CCCCC1NC(=O)C1CCCO1 (stereo not given)	5	-0.54
CC(C)N(Cc1ccccc1)C(=O)CCS(=O)(=O)Cc1ccccc1	-8	1.45
Cc1cc(C(=O)Nc2cc3c(=O)[nH]cnc3cc2F)n(C)n1	-8	1.35
Cc1ccc(F)c(CN2CCCn3nc(CNC(=O)C4CCC4)cc3C2)c1F	0	-0.03
CCCCN(CC(N)=O)Cc1cccc(F)c1	-6	0.89
O=C(CCn1cccn1)Nc1ccc2c(c1)OCO2	4	-0.65
O=C(c1ccc(Cl)cn1)N1CCC(O)(Cc2cccc(F)c2)CC1	-18	2.12
O=C(Nc1ccc(Cl)cc1Cl)C1=NCCCN1	-1	0.14
CC1(C)CN(C(=O)Cn2c(C3CC3)nc3ccccc32)C[C@]1(C)O	-3	0.54
CCc1ccccc1S(=O)(=O)N1CCC(c2nc(CNC(=O)C3CCC3)cs2)CC1	-6	0.75
COCC(=O)N[C@@H](Cc1ccc(F)cc1)C(C)C	-1	0.14
O=C(CCCc1cn[nH]c1)N1CCC([C@@H](O)CCc2ccccc2)CC1	-6	0.86
CC(C)N1C(=O)C[C@H](NC(=O)N(C)C2CCOCC2)C1=O	-9	0.78
Cc1nc(N2CCOCC2)ccc1NC(=O)[C@@H](N)COC(C)C	-2	0.24
Cc1nn(C)c(C)c1CCC(=O)N1CCC[C@H]1c1ccc(C(N)=O)s1	7	-1.22
CC(C)(C)c1nsc(NC(=O)NCc2nccs2)n1	-4	0.63
Cc1c(C(=O)N2CCOCC2)c(S(=O)(=O)N(C)Cc2ccccc2)c(C)n1C	-15	2.79
C[C@@H](NC(=O)c1ccco1)c1ccccc1	0	0.04
Cc1cc(C(=O)Nc2ccc(NC(=O)Cc3c[nH]cn3)cc2)co1	-7	0.99
CN(C[C@H]1CC(=O)N(C(C)(C)C)C1)C(=O)c1cncc(O)c1	-12	2.16
CCCCN1CCCC[C@@H]1CNc1ccc2nnnn2n1	-2	0.29
Cc1ccc2[nH]nc(C(=O)N[C@H]3CC(=O)N(C4CCCCCC4)C3)c2c1	-7	0.73
O=C(Nc1cc(C(F)(F)F)ccc1Cl)C1=C(c2ccccc2)S(=O)(=O)CCO1	9	-1.12
CN(Cc1nnnn1CC(F)(F)F)c1ccc(F)c(Cl)c1	11	-1.81
O=C(NCCc1c[nH]c2ccccc12)[C@@H]1CCCCO1	-8	1.51
CC(=O)N[C@H]1C[C@@H](c2cccc(OCC(N)=O)c2)O[C@@H](C2CCCCC2)C1	7	-1.28
Cn1ncc2c(=O)[nH]c(CN3CCC[C@H]3c3nccs3)nc21	-14	2.67
